In PubChem BioAssay AID2100 (National Center for Advancing Translational Sciences (NCATS), 2009):
In all, about 300,000 compounds went through this assay and about 1,200 (0.4%) were called active. Inconclusive means that the source gave no clear call. Such entries were picked first, then a sample of the others. Calls come from the whole dose curve; as a rule, active = well fitted inhibition curve with a large enough effect; inconclusive = small, poorly fitted or top-dose-only effect, or another doubt; inactive = no such curve, though single readings can be large or run the other way. Potencies beside an inconclusive call are fits to weak or partial responses and may not hold up.

biological target: Lysosomal alpha-glucosidase (Homo sapiens) (UniProt P10253); test: qHTS Assay for Inhibitors and Activators of Human alpha-Glucosidase Cleavage of Glycogen; details: recombinant GAA, glycogen substrate, Amplex Red glucose oxidase fluorescence; activity change, negative = inhibition: at 76.4 µM (top of the series) unless noted;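 for activity change, negative = inhibition: 0% = full enzyme reaction and -100% = no-enzyme basal signal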
Outline: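 Recombinant enzyme (4 nM final) with compounds titrated up to 77 uM and bovine liver glycogen (30 ug) in citrate pH 5.0, 0.01% Tween-20, 37 C 40 min. Released glucose detected by Amplex Red/glucose oxidase (Ex 573/Em 610); AC50 from Hill fits.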
Potency is the fitted concentration of half-maximal effect.

Compound | Potency | activity change, negative = inhibition
Clc1ccc2nc(-c3cccs3)c(Nc3ccc4c(c3)OCCO4)n2c1 | inconclusive: 10 µM [inhibitor, full curve] | 
COC(=O)c1cc2oc3ccccc3c2n1CC(=O)Nc1ccc(F)c(Cl)c1 | inactive | 
COc1ccc(C(=O)Oc2ccc(C(c3c(C)[nH][nH]c3=O)c3c(C)[nH][nH]c3=O)cc2)cc1 | inconclusive: 31.6 µM [inhibitor, partial curve] | 
C/C(=N/Nc1nc(-c2ccccc2)cc(-c2ccccc2)n1)c1ccc(N)cc1 | inconclusive: 12.5 µM [inhibitor, partial curve] | 
CCCCn1cnc2c(c(-c3ccccc3)c(-c3ccccc3)n2Cc2ccco2)c1=N | inactive | 
CC1CCCCN1CCCNc1ccc(C(CC(N)=O)NC(=O)Cc2cccc3ccccc23)cc1[N+](=O)[O-] (stereo not given) | inconclusive: 11.2 µM [inhibitor, single point] | 
O=C1CC(Nc2ccc(N3CCOCC3)cc2)C(=O)N1c1cccc(C(F)(F)F)c1 (stereo not given) | active: 24.9 µM | 
CC(=O)c1cccc(NC(=S)Nc2cccc3ccccc23)c1 | inconclusive: 22.4 µM [inhibitor, partial curve] | 
Oc1ccc(-c2cn3c(n2)SCC3)cc1O | inconclusive: 39.5 µM [inhibitor, single point] | 
COc1ccc2c(c1)cc1n2CCN=C1NN | inconclusive: 20 µM [inhibitor, single point] | 
CN(C)c1ccc(CNC(=O)c2ccc(CNc3c(N4CCCCC4)c(=O)c3=O)cc2)cc1 | inconclusive: 8.91 µM [activator, full curve, poor fit] | 
CC(C)c1nnc(NC(=O)C2CCN(S(=O)(=O)c3ccc(-n4cnnn4)cc3)CC2)s1 |  | inconclusive: 30.4% [activator]
c1cnc2ccc(C(c3nnnn3C3CCCC3)N3CCSCC3)cc2c1 (stereo not given) | inconclusive: 50.1 µM [inhibitor, single point] | 
CN(C)NC(=S)Nc1ccc2nc(-c3ccccn3)c(-c3ccccn3)nc2c1 | inconclusive: 19.8 µM [inhibitor, single point] | 
O=C1C=C(NCc2ccccc2)c2ccccc2C1=O | inactive | 
COc1cc(/C=C/C(=O)O)cc(Br)c1O | inconclusive: 10 µM [inhibitor, partial curve] | 
CCOc1ccc(NC(=O)[C@@H](c2ccccc2)N2Cc3ccccc3C2=O)cc1 | inactive | 
CCCCC(=O)NC(Nc1sc2c(c1C(N)=O)CCCC2)(C(=O)OCC)C(F)(F)F (stereo not given) | inconclusive: 4.43 µM [inhibitor, single point] | 
O=C(c1ccc(Cl)c(S(=O)(=O)N2CCCCCC2)c1)N1CCN(c2ccccc2O)CC1 | inconclusive: 15.8 µM [inhibitor, partial curve] | 
S=C(Nc1ccc(Nc2ccccc2)cc1)NC1CCCCCC1 | inconclusive: 10 µM [inhibitor, full curve] | 
CSc1nsc(/C=C/Nc2ccc(O)cc2C)c1C#N | inconclusive: 35.5 µM [inhibitor, partial curve] | 
NNc1ccc2c(C(F)(F)F)cc(C(F)(F)F)nc2n1 | inconclusive: 39.5 µM [inhibitor, single point] | 
O=[N+]([O-])c1cccc(N/N=C/c2cccc(O)c2O)c1 | inconclusive: 10 µM [inhibitor, partial curve] | 

Compound | Potency | activity change, negative = inhibition
CCNc1nc(NCC)nc(N/N=C/c2ccc(O)c(OC)c2)n1 | inconclusive: 31.6 µM [inhibitor, single point] | 
Cc1ccc(C)c(S(=O)(=O)Nc2ccc(O)cc2)c1 | active: 12.5 µM | 
Cc1cc(O)c(/C=N/Nc2ccc(F)cc2)c(=O)o1 | inconclusive: 31.6 µM [inhibitor, partial curve] | 
CCOc1ccccc1CNC(=O)CCC(=O)N1CCSc2ccccc21 | inactive | 
COc1ccccc1CNC(=O)CCCCn1c(=O)c2ccccc2n(CC(=O)Nc2c(C)cc(C)cc2C)c1=O | inactive | 
COc1ccc2oc(C)c(C(=O)NN)c2c1 | inconclusive: 15.8 µM [inhibitor, partial curve] | 
COc1cc(/C=C2/C(=O)NN(c3ccc(Cl)c(Cl)c3)C2=O)cc([N+](=O)[O-])c1O | inconclusive: 31.6 µM [inhibitor, partial curve] | 
Cc1csc(Nc2cccc3ccccc23)n1 | inconclusive: 31.6 µM [inhibitor, partial curve] | 
OC1C[N+]2(CCCCC2)C1 | inactive | 
COCCNC(=S)N/N=C(\C)c1ccc(Cl)s1 | inactive | 
CCN(CC)CCNc1cc(C)nc2c1C(=O)C(=O)C=C2N1CCCCC1 | inconclusive: 15.7 µM [activator, partial curve] | 
Cc1ccc([N+](=O)[O-])cc1S(=O)(=O)Nc1ccc(O)c(Sc2ncn[nH]2)c1 | inactive | 
COc1cc(/C=N/Nc2nc3ccccc3[nH]2)cc(OC)c1O | active: 20 µM | 
Cc1ccc(NC2CC(=O)N(CCc3ccccc3)C2=O)cc1 (stereo not given) | inconclusive: 3.16 µM [inhibitor, full curve, poor fit] | 
COc1ccccc1NC(=O)CN(c1cc(C)cc(C)c1)S(=O)(=O)c1c(C)[nH]c(=O)[nH]c1=O | inactive | 
Cc1nc(C(=O)N2CCc3c([nH]c4ccccc34)C2c2ccccn2)cs1 (stereo not given) | active: 15.8 µM | 
O=C1NC(=S)S/C1=C\c1ccc(SCc2ccco2)o1 | inconclusive: 25.1 µM [inhibitor, partial curve] | 
CC(C)(C)n1cnc2cc(NS(=O)(=O)c3ccc(Br)cc3)ccc21 | inactive | 
COc1ccc(NC(=O)Nc2cccs2)cc1OC | inconclusive: 11.1 µM [inhibitor, partial curve] | 
Cc1ccn2c(C(=O)NN=C3CCN(C)CC3)c(C)nc2c1 | inconclusive: 20 µM [inhibitor, partial curve] | 
Cc1c(N=C2C=CC(=O)c3ccccc32)c(=O)n(-c2ccccc2)n1C | inconclusive: 10 µM [inhibitor, partial curve] | 
O=C(NNC1CC(=O)N(c2ccccc2)C1=O)c1ccco1 (stereo not given) | inconclusive: 12.5 µM [inhibitor, partial curve] | 
